Laboratory results as given in PubChem BioAssay AID651820 (National Center for Advancing Translational Sciences (NCATS), 2012).
Among all 340,000 compounds or so, about 12,000 (3.5%) were called active. The shares of active, inactive and inconclusive entries below differ from those in the screen. Calls follow the shape of the dose curve; as a rule, active = well fitted inhibition curve with a large enough effect; inconclusive = small, poorly fitted or top-dose-only effect, or another doubt; inactive = no such curve, though single readings can be large or run the other way. No potency is given beside an inconclusive call; the fits are too rough.

Assay: qHTS Assay for Inhibitors of Hepatitis C Virus (HCV)
Conditions: Huh7.5.1 HCVcc-Cre (HCVcc is cell-culture hepatitis C virus) infection, luciferase reporter, 44 h; series mostly up to 41.8 µM
Method in brief: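 Antiviral activity was scored by luciferase reporter output from cells infected with HCVcc-Cre (~0.5 moi) in presence of compound, 44 h infection period, cells seeded 1,000/well 4 h prior.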
Potency is read from the fitted curve at half-maximal effect; tags tell the direction and shape of the fitted curve.

| SMILES | Potency |
| --- | --- |
| CCOc1ccc(C(C)C)cc1S(=O)(=O)n1nc(C)cc1C | inconclusive [inhibitor, single point] |
| CCCCOc1ccc(CSc2nncn2N)cc1 | inactive |
| CCCCNC(=O)CCC(=O)Nc1ccc2nc(N3CCC(C)CC3)cc(C)c2c1 | inconclusive [inhibitor, partial curve] |
| Cc1nn(Cc2ccc(Cl)cc2Cl)c(C)c1NC(=O)C1C2CCC(O2)C1C(=O)O (stereo not drawn) | inconclusive [inhibitor, partial curve] |
| CCOc1ccc(N(CC(=O)NCc2ccccc2OC)S(C)(=O)=O)cc1 | inactive |
| COc1ccc(C(=O)N2CCCC(CCC(=O)NCc3ccc(F)c(F)c3)C2)cc1F (stereo not drawn) | inactive |
| Cc1ccc(N2C(=O)N(CC(=O)N3c4ccccc4CC3C)C(=O)C2C)cc1 (stereo not drawn) | inconclusive [inhibitor, partial curve] |
| CCN(CC)S(=O)(=O)c1cccc(NC(=O)c2ccc(C#N)cc2)c1 | inconclusive [inhibitor, partial curve] |
| COCCNCCCCOc1ccccc1-c1ccccc1 | inconclusive [inhibitor, single point] |
| COC(=O)c1[nH]c2ccc(Cl)cc2c1NC(=O)c1ccccc1[N+](=O)[O-] | inconclusive [inhibitor, partial curve] |
| COc1ccc(OC)c(NC(=O)c2cccc(N3C(=O)C4C5C=CC(C6CC56)C4C3=O)c2)c1 (stereo not drawn) | inconclusive [inhibitor, partial curve] |
| Clc1ccc(C(c2ccc(Cl)cc2)n2cc[n+](CC(OCc3ccc(Cl)cc3Cl)c3ccc(Cl)cc3Cl)c2)cc1 (stereo not drawn) | inconclusive [inhibitor, single point] |
| Cc1ccc(Nc2nc(-c3ccc(O)cc3O)cs2)nc1 | inconclusive [inhibitor, partial curve] |
| Nc1nc(CN2CCN(c3ccccc3)CC2)nc(Nc2ccc(Cl)cc2)n1 | active: 12.6 µM |
| Cc1ccccc1NS(=O)(=O)c1ccc(N2CCCC2=O)cc1 | inconclusive [inhibitor, single point] |
| CCCC(NC(=S)NCC1CCCO1)C12CC3CC(CC(C3)C1)C2 (stereo not drawn) | active: 11.2 µM |
| O=c1cc(O)c2c(=O)n(Cc3ccccc3)c3ccccc3c2o1 | inconclusive [inhibitor, single point] |
| C=CCOc1cccc(CNCc2ccncc2)c1 | inconclusive [inhibitor, single point] |
| O=C(CN1C(=O)NC2(CCCC2)C1=O)Nc1ccc(C(F)(F)F)cc1 | inconclusive [inhibitor, single point] |
| Cc1ccccc1-c1coc2cc(O)ccc2c1=O | inactive |
| CC(C)(C)NCC(O)COc1ccccc1C1CCCC1 (stereo not drawn) | inconclusive [inhibitor, single point] |
| Cc1ccc(NS(=O)(=O)c2ccc(C(=O)N3CCN(S(=O)(=O)c4ccccc4)CC3)cc2)cc1 | inconclusive [inhibitor, single point] |

| SMILES | Potency |
| --- | --- |
| CCn1c2ccccc2c2cc(NC(=O)COC(=O)c3ccccc3O)ccc21 | active: 11.2 µM |
| CNc1nc(C)cc(C)c1S(=O)(=O)c1ccc(C)cc1 | inconclusive [inhibitor, partial curve, poor fit] |
| Cc1oc(-c2cccs2)nc1CS(=O)CC(=O)NCCCN1CC(C)CC(C)C1 (stereo not drawn) | inactive |
| CN(c1ccccc1)S(=O)(=O)c1ccccc1Br | inconclusive [inhibitor, partial curve] |
| O=C(Nc1cccc(O)c1)c1ccc(C(=O)c2ccccc2)o1 | inconclusive [inhibitor, single point] |
| CCc1ccc(-c2nc(SCC(=O)NC3CCCC3)n[nH]2)cc1 | inconclusive [inhibitor, single point] |
| C=CCSc1nnc(CSc2nc3sc4c(c3c(=O)[nH]2)CCCC4)n1-c1ccccc1 | inactive |
| Cc1sc2ncnc(N3CCC(C(=O)NNC(=O)COc4ccc(Br)cc4)CC3)c2c1C | inconclusive [inhibitor, partial curve, poor fit] |
| COC(=O)C1=C(c2ccc(F)cc2OCc2ccccc2)C[C@@H]2CC[C@H]1N2C(=O)NCc1ccc(N(C)C)cc1 | inconclusive [inhibitor, single point] |
| Cc1cc(NC(=O)c2cccc(S(=O)(=O)N3CCCCCC3)c2)n(-c2ccccn2)n1 | inactive |
| CN(C)S(=O)(=O)c1cccc(NC(=O)c2ccc(S(=O)(=O)N3CCCCC3)cc2)c1 | inconclusive [inhibitor, partial curve] |
| Cc1ccc(Sc2ncccc2COC(=O)Nc2c(C)cccc2C)cc1 | inconclusive [inhibitor, single point] |
| COCCCNCCOCCOc1ccc(Cl)cc1Br | inconclusive [inhibitor, full curve] |
| CCCNC(=O)N1CCN(c2nc(C(C)C)c3c(c2C#N)CC(C)(C)OC3)CC1 | inconclusive [inhibitor, full curve] |
| COc1cccc(C(=O)c2cn(CC(=O)NCc3ccco3)c3nc(C)ccc3c2=O)c1 | inactive |
| Cc1nn(C(=O)c2c(-c3ccccc3)noc2C)c(C)c1N=Nc1cc(C(F)(F)F)cc(C(F)(F)F)c1 | inactive |
| CC1CCN(C(=O)c2cc3nc(-c4ccccc4)cc(-c4ccccc4)n3n2)CC1 | inconclusive [inhibitor, single point] |
| O=C(CCCOc1ccc(Cl)cc1Cl)N/N=C/c1ccco1 | inconclusive [inhibitor, partial curve] |
| N#Cc1ccccc1Cn1cc(/C=N/Nc2ccc([N+](=O)[O-])cn2)c2ccccc21 | active: 2.51 µM |
| Cc1ccc(CCNC(=O)C2CCCN(C(=O)N(C)C)C2)cc1 (stereo not drawn) | inactive |
| COc1ccc(S(=O)(=O)N/N=C(/C)c2cccc(NC(=O)c3ccccc3Cl)c2)cc1 | inconclusive [inhibitor, partial curve] |
